Assay results taken from PMC4336329 (PLoS ONE, 2015).
The campaign covered roughly 310,000 compounds. About 14,000 (4.5%) showed an effect of 50% or more. The effect is printed as a negative number. The list shows a part of the results. Where a SMILES comes first, the peptide text is derived from it. [ ]: non-standard residue; d: D form. The star is where a group is joined. ξ: configuration not given here. Cbz = O=C(OCc1ccccc1)*; ξP = O=C(O)C1CCCN1

The molecules below were run against human ether-à-go-go-related gene (hERG) potassium channel (human, UniProt Q12809) (assay: primary screen, population patch clamp on CHO cells stably expressing hERG).
Chain of human ether-à-go-go-related gene (hERG) potassium channel (Q12809 whole entry, looked up): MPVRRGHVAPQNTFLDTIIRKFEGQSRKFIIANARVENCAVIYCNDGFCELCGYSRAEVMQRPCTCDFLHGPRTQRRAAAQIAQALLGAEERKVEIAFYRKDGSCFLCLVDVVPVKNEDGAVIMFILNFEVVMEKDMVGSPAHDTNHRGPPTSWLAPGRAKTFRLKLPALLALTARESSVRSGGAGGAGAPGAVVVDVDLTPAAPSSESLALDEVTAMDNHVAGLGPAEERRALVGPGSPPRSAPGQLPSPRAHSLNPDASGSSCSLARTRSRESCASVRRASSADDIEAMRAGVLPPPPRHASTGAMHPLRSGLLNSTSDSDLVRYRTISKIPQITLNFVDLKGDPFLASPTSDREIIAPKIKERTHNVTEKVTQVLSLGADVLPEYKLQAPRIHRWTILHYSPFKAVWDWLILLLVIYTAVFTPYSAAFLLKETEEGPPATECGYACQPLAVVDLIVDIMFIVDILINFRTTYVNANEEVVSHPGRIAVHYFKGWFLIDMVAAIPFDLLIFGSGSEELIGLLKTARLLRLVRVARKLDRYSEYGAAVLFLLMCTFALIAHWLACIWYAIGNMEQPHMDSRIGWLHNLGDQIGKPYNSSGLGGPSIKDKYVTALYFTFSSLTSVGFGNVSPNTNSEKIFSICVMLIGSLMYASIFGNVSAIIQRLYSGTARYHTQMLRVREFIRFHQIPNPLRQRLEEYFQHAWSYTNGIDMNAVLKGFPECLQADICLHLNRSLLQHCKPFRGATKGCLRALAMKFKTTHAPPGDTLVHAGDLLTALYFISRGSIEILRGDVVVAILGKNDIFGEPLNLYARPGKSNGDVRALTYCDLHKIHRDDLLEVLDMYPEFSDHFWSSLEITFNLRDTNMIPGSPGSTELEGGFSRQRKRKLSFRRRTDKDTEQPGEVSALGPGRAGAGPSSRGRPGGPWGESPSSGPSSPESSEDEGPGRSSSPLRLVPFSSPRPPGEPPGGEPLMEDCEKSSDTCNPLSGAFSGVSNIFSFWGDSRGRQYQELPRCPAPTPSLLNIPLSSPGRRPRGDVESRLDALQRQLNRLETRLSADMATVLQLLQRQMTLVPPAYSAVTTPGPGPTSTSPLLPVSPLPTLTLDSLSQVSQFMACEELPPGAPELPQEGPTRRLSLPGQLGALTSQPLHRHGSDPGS
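Further: peak tail current of the secondary pulse compared with the same well before compound.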

| Structure (SMILES) | hERG current change (%, negative = inhibition) at 10uM [%] |
| --- | --- |
| CC(c1ccccc1)N1C(=O)c2ccc(C(=O)Nc3ccc(Br)cc3C(=O)O)cc2C1=O (stereo not shown) | 10.5 |
| CCOC(=O)c1c(NC(=O)OC)sc2c1CCC2 | -4.95 |
| COc1ccc(NC(=O)CCS(=O)(=O)c2ccc3nc(C)sc3c2)cc1OC | -3.15 |
| O=C(c1ccccc1)c1ccc(OCC(O)CN2CCCC2)cc1 (stereo not shown) | -45.3 |
| COc1ccc(NCc2n[nH]nc2-c2ccccc2)cc1Cl | 4 |
| CCn1c(SCC(=O)N2CCC(C)CC2)nnc1-c1ccc(S(=O)(=O)N2CCN(C)CC2)cc1 | -5.56 |
| CCCC(=O)c1cc2cc(Cl)ccc2oc1=O | 8.39 |
| O=C(CN1CCN(Cc2ccccc2Cl)CC1)N/N=C/c1ccco1 | -21.8 |
| CC(C)N(C(=O)COC(=O)[C@@H]1CC(O)CN1S(=O)(=O)c1ccccc1[N+](=O)[O-])C(C)C (stereo partly shown) | 12.1 |
| CC[C@@H](C)[C@H](NC(=O)C1CCN(C(=O)[C@@H](NS(=O)(=O)c2ccc(C)cc2)C(C)C)CC1)C(=O)O | 17.5 |
| COc1ccc(NC(=O)CN(C)C(=O)C(C)Oc2ccc(Br)cc2)cc1 (stereo not shown) | -17 |
| CC(C)CCC1(C)NC(=O)N(CC(=O)c2ccc[nH]2)C1=O (stereo not shown) | -10.8 |
| O=C(COC(=O)Cn1cnc2ccccc21)Nc1ccc2c(c1)C(=O)c1ccccc1C2=O | 2.35 |
| CCN(CC)CCC#CC1(O)c2ccccc2-c2ccccc21 | 2.38 |
| COc1ccc(OC)c(/C=C2\NC(=O)NC2=O)c1 | 8.95 |
| CCn1cc(C(=O)NC2CCCCC2C)c(=O)c2ccc(C)nc21 (stereo not shown) | 3.04 |
| CCCn1c(SCC(=O)NCC(=O)Nc2ccc(F)c(F)c2F)nc2ccccc2c1=O | -9.04 |
| CN1CCN(CCC(=O)N/N=C/c2ccccn2)CC1 | 21.3 |
| COCCNC(=O)CSc1nc2ccccc2c(=O)n1CCCC(=O)NCc1ccccc1 | -33.9 |
| CC12CCCCC1c1ccccc1C(=NCC(=O)O)N2 (stereo not shown) | -36.4 |

| Structure (SMILES) | hERG current change (%, negative = inhibition) at 10uM [%] |
| --- | --- |
| COc1ccc(NC(=O)CSCC(=O)Nc2cc(Cl)ccc2N2CCCC2)cc1 | -24.1 |
| Cc1cc(C(=O)NCc2ccc3c(c2)OCO3)c(C)o1 | 0.427 |
| CCOc1ccc(C(=O)NC(=S)Nc2ccc(NC(=O)C(C)C)cc2)cc1[N+](=O)[O-] | -19.3 |
| O=C(NC1CCCC1)NS(=O)(=O)c1ccccc1Cl | 6.5 |
| Brc1ccccc1 | 4.67 |
| CCn1c(SCc2nc3ccccc3s2)nnc1-c1cccs1 | -60 |
| CC1CCC2C(C1)c1sc(=O)[nH]c1SC2(C)C (stereo not shown) | -4.84 |
| Cc1ccc(S(=O)(=O)C(C#N)=C2N(C)c3ccccc3N2C)cc1 | 50.5 |
| O=C(CCS(=O)(=O)c1cccc2nonc12)N1CCN(c2ccc(F)cc2)CC1 | -60.8 |
| O=C(O)CNC(=O)C1CCCN1C(=O)CNC(=O)OCc1ccccc1 (stereo not drawn) (Cbz-Gly-[ξP]-Gly-OH) | 10.9 |
| CC(=O)N1CCC(N2CCN(Cc3ccc(C)cc3)C(CCO)C2)CC1 (stereo not shown) | -7.68 |
| COC(=O)C1=C(C)N(c2ccc(C(=O)OC)cc2)C(=O)C1 | 22.3 |
| O=C(CSc1nc2c([nH]c3ccccc32)c(=O)n1-c1ccccc1)N1CCOCC1 | 5.52 |
| CCc1ccc(C2=NN(S(C)(=O)=O)C(c3cccs3)C2)cc1 (stereo not shown) | -13.3 |
| COC(=O)c1cccc(NC(=O)c2ccccc2)c1 | -14.8 |
| O=C(CCn1cccn1)N1CCCC(N2CCN(c3cccc(Cl)c3)CC2)C1 (stereo not shown) | -54.1 |
| Cc1ccc(N2C(=O)CN(Cc3sccc3C)C2=S)cc1C | -10.6 |
| CCc1ccc(CN2CCC(N3CCC(C(=O)N4CCCC4)CC3)CC2)o1 | -70 |
| CC(=O)c1cc2c(s1)-c1cc(F)ccc1OC2 | -19.8 |
| O=C(O)CCC(=O)NCc1ccc(F)cc1 | -7.12 |

| Structure (SMILES) | hERG current change (%, negative = inhibition) at 10uM [%] |
| --- | --- |
| Cc1ccc(-c2csc3ncnc(NCCC(=O)O)c23)cc1.Cl | 2.06 |
| O=C(CCn1ccc2ccccc21)NC1CCCc2ccccc21 (stereo not shown) | -14.3 |
| O=C(Nc1ccccc1)OCCN1CCN(Cc2ccccc2)CCC1=O | -9.85 |
| COc1cc(C(=S)N2CCOCC2)ccc1OC(=O)/C=C/c1ccco1 | 13 |
| S=c1sc2ccccc2n1CCc1ccncc1 | -41.9 |
| Oc1ccc(C=NC2CCCCC2)cc1 | 9.67 |
| Cn1c(SCC(=O)N2CC(=O)Nc3ccccc32)nc2ccccc2c1=O | -5.57 |
| Cc1ccc(-n2c(C)c(C)c3c(N)ncnc32)cc1 | 3.79 |
| O=C(/C=C/c1ccc(OCCCF)cc1)Nc1ccnc(-c2ccncc2)n1 | 7.22 |
| Cc1cc(C)c(NC(=O)c2sc3nc(C)[nH]c(=O)c3c2C)c(C)c1 | 4.73 |
| CCCCn1c(C(C)NC(=O)c2cccs2)nc2ccccc21 (stereo not shown) | 16.2 |
| CCn1c(C)cs/c1=N\S(=O)(=O)c1ccccc1 | 2.93 |
| CCCn1c(=S)[nH]c2ccc(C(F)(F)F)cc21 | -42.7 |
| Cc1ccn2c(=O)nc(SCC(=O)N3N=C(c4cccs4)CC3c3ccc(F)cc3)nc2c1 (stereo not shown) | -65 |
| COc1cc2c(cc1OC)C(=O)N1[C@H]3c4cc(Cl)ccc4OC[C@@H]3[C@H](c3ccccc3)[C@]1(C)C(=O)N2 | 6.41 |
| CCOc1cccc(N(C(=O)CCC(=O)Nc2cc(C)on2)C(C(=O)NC(C)(C)C)c2ccc(OC)cc2)c1 (stereo not shown) | -13.8 |
| Cc1cccc(OCC(=O)Nc2ccccc2F)c1 | 18.6 |
| Cn1c(Cl)nc2c1c(=O)n(Cc1cccc(Br)c1)c(=O)n2C | -35.3 |
